Experimental data: the supplement of paper PMC7826260
This is one part of the list. The data describe in vitro nicking of single-stranded DNA by Rep domains (3 µM enzyme, 1 h, 37 °C); shown is the middle of each 90-letter strand. Values are log2 of uncut reads against the no-enzyme pool; the lower, the more was cut; hits are not called. Shares of all reads are compared; values above 0 arise when much of the pool is cut.

Key:
Assay in all cases: uncleaved DNA left, log2 of reads against the no-enzyme library (log2 ratio); higher = less cleavage (more negative = more Rep cleavage of the k-mer); sequences stand for … in CTCGTCCG…ACCGGAGA
[1] = tested on: T1, Rep nickase domain of Muscovy duck circovirus
T1 sequence (residues 1-111 of Rep, tag left off): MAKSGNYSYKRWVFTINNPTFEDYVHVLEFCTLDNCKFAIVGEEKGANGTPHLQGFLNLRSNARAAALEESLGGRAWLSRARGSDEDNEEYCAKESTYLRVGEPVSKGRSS
Description: (§1)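 A pool of 90-nt single-stranded DNAs with seven random bases just before the constant AC of the nick site (name = the seven bases) was cut by 3 µM recombinant His6-SUMO-tagged Rep nickase domain (300 nM DNA, 50 mM HEPES pH 8.0, 50 mM NaCl, 1 mM MnCl2, 1 h, 37 °C, three replicates). Uncut DNA was amplified and sequenced.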

[2] = tested on: T2, Rep nickase domain of banana bunchy top virus
T2 sequence (residues 1-94 of Rep, tag left off): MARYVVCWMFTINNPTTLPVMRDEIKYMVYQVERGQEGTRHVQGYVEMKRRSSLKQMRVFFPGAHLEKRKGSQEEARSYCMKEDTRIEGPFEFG
Description: as §1

[3] = tested on: T3, Rep nickase domain of cabbage leaf curl virus
T3 sequence (residues 1-116 of Rep, tag left off): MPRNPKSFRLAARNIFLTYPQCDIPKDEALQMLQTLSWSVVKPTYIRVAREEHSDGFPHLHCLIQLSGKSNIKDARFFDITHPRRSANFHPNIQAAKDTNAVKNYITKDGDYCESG
Description: as §1

[4] = tested on: T4, Rep nickase domain of chickpea chlorotic dwarf virus
T4 sequence (residues 1-124 of Rep, tag left off): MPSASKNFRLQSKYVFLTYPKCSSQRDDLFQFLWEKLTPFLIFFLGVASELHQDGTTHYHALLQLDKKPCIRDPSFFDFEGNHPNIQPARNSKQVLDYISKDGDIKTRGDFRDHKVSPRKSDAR
Description: as §1

[5] = tested on: T5, Rep nickase domain of faba bean necrotic yellows virus
T5 sequence (residues 1-98 of Rep, tag left off): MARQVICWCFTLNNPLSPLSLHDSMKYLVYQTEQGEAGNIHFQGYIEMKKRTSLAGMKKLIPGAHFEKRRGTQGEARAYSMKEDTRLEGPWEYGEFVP
Description: as §1

[6] = tested on: T6, Rep nickase domain of maize striate mosaic virus
T6 sequence (residues 1-117 of Rep, tag left off): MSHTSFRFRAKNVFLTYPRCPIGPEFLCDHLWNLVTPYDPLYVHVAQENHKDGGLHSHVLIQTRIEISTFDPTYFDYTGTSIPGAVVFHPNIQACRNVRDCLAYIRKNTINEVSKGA
Description: as §1

[7] = tested on: T7, Rep nickase domain of porcine circovirus 2
T7 sequence (residues 2-116 of Rep, tag left off): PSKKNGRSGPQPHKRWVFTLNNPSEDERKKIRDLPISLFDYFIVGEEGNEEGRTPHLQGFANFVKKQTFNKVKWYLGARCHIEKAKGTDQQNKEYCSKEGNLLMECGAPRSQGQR
Description: as §1

[8] = tested on: T8, Rep nickase domain of tomato golden mosaic virus
T8 sequence (residues 1-124 of Rep, tag left off): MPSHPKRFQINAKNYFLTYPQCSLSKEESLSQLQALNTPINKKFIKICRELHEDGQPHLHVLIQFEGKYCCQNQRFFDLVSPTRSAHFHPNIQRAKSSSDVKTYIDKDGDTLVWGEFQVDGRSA
Description: as §1

[9] = tested on: T9, Rep nickase domain of tomato yellow leaf curl virus
T9 sequence (residues 1-136 of Rep, tag left off): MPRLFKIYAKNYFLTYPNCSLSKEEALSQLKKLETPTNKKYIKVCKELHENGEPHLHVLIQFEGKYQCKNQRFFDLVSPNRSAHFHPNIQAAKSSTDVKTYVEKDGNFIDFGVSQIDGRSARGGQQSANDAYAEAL
Description: as §1

[10] = tested on: T10, Rep nickase domain of wheat dwarf virus
T10 sequence (residues 1-137 of Rep, tag left off): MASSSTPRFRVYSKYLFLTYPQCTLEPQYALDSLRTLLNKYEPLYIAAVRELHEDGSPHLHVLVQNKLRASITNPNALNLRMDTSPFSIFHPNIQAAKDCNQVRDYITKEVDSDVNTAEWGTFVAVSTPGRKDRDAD
Description: as §1

Sequence	uncleaved DNA left (log2) [1]	uncleaved DNA left (log2) [2]	uncleaved DNA left (log2) [3]	uncleaved DNA left (log2) [4]	uncleaved DNA left (log2) [5]	uncleaved DNA left (log2) [6]	uncleaved DNA left (log2) [7]	uncleaved DNA left (log2) [8]	uncleaved DNA left (log2) [9]	uncleaved DNA left (log2) [10]
CCTGGCA	-0.021	-0.127	-0.319	-0.56	0.0055	-1	-0.128	-0.124	-0.0263	-0.0716
CTTGCTC	-0.141	-0.0549	-0.461	-0.922	-0.041	-1.08	0.0706	-0.126	-0.0639	-0.113
TCGAGAG	0.21	0.169	-0.109	0.0021	0.0729	-0.693	0.144	0.176	0.137	0.0651
CGCTTCA	-0.117	-0.118	-0.215	-1.13	-0.0599	-0.678	-0.192	-0.108	0.0183	-0.0519
ACCTGAG	0.238	0.133	-0.251	0.804	0.157	-0.121	0.232	0.147	0.361	0.114
GGCCATA	-0.0362	-0.0841	0.636	1.66	-0.196	2.04	0.115	-0.158	0.059	-0.0268
ACAGGTG	-0.059	-0.0581	-0.705	-0.179	0.00976	-1	0.15	0.0235	0.0878	-0.0636
ACCGAAC	-0.134	-0.0372	-0.0918	-0.207	-0.159	-0.515	0.0615	0.0802	-0.0239	0.0153
GGGTTCG	0.0505	0.0662	0.477	0.966	0.0335	1.04	0.187	-0.0112	-0.00752	0.0455
TGAGTCG	-0.0856	-0.187	-0.896	-0.311	0.00672	-1.02	0.101	-0.0594	-0.055	-0.158
TGCCAAA	-0.0237	-0.00758	0.153	0.111	-0.111	-0.386	-0.027	-0.0393	0.0446	0.0255
AGCCAAC	-0.0558	0.00308	-0.115	-0.439	-0.0778	-0.00753	-0.0529	-0.0324	-0.0136	-0.0121
TTTCATT	-1.05	-0.0752	-0.272	-2.28	-0.126	-0.435	-2.69	-0.344	-0.0112	-0.0585
TGCGTTT	-0.0255	0.0257	-0.337	-1.05	0.119	-0.777	-0.0734	-0.0357	0.0435	-0.115
GAGTCCA	0.0475	-0.00865	0.318	-0.709	-0.226	1.09	-2.39	0.0587	0.0991	-0.00198
CCCCGTT	-0.0493	-0.275	-0.274	-1.29	-0.193	-0.604	-0.301	-0.228	-0.244	-0.245
ACTCGCC	0.0652	0.02	-0.302	-0.269	0.0665	-0.721	0.126	0.0771	-0.0396	0.00145
CTCGTTG	-0.0512	-0.101	-0.606	-0.63	-0.0356	-0.941	0.0196	-0.00571	-0.0286	-0.173
GCAGTGT	0.0934	-0.0429	-0.389	-0.282	-0.0454	-0.885	0.0498	-0.0131	0.014	-0.168
TACGCGG	-0.0591	-0.133	0.262	0.893	-0.111	0.935	0.0374	0.0323	-0.0765	-0.0401
CAGAATA	-0.132	-0.185	-0.28	-2.22	-0.112	-0.524	-1.7	-0.0607	-0.136	-0.12
CCCGGCA	-0.0721	0.00563	-0.119	-0.355	0.0349	-0.781	-0.0922	-0.0195	-0.0472	-0.111
GAAGATG	-0.00415	-0.112	0.197	1.19	-0.103	1.35	0.147	0.0226	-0.231	0.0488
GTTAATG	0.126	0.0697	0.131	0.436	0.0935	0.136	0.081	0.167	0.036	0.0612
GGAACGC	0.0633	0.208	0.985	1.99	0.131	2.15	0.45	0.269	0.154	0.315
GTTCAAT	0.00435	0.0156	0.235	0.932	-0.015	1.69	-0.054	-0.0071	-0.0342	0.033
TTTTAGA	0.0838	-0.0172	0.102	-0.0906	0.191	-0.505	0.123	0.141	0.0383	0.0302
CGTGACA	-0.0431	0.00113	0.416	0.752	-0.155	1.32	0.0102	-0.181	-0.0629	-0.0551
GCGGTAT	0.04	0.0601	0.73	1.42	-0.101	1.89	0.252	0.119	0.0992	0.21
CTTAGTC	0.15	0.166	-0.0194	-0.0631	0.0292	-0.758	0.163	-0.049	0.137	0.116
